Test results as given in the supplement of paper PMC7125110.
± gives the standard error. Variants at the floor of the assay are shown more often than the library holds them.

B1: glmS ribozyme (parent)
chain: AUAAAAGCGCCAGAACUACAGAAAUGUAGUUGACGAGGAGGAGGUUUAUCGAAUUUUCGGCGGAUGCCUCCAAA

Variants of: B1
Assay: self-cleavage kobs at 2500 uM GlcN6P; higher = faster cleavage; RNA array
Conditions: with glucosamine-6-phosphate
Outline: (§1)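 kcat and KM were obtained from weighted Michaelis–Menten fits across concentrations of kobs values. Those came from one- or two-exponential decay fits to per-tile medians normalised to baseline and to non-cleaving reference variants. The variants were barcoded ribozymes transcribed in situ by E. coli RNA polymerase on sequenced MiSeq chips and tracked through a hybridised Cy3 probe at 37 °C, with 40 μM to 10 mM glucosamine-6-phosphate in HEPES/KCl/Mg(OAc)2 buffer flowed in.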

| Variant | self-cleavage kobs at 2500 uM GlcN6P [s⁻¹] |
| --- | --- |
| AUAAAAGCGCCAGAGCUACAGAAAUGUAGUUGACGAGGAGGAGGUUUAUCGAAUUUUCGGCGGCUGCCUCUAAA [A15G A64C C71U] | 7.46e-05 ± 1.9e-05 |
| AUAAAAGCGCCAGAGCUACAGAAAUGUAGUUAACUAGGAGGAGGUUUAUCGCAUUUUCGGCGGAUGCCUCCAAA [A15G G32A G35U A52C] | < 1e-05 |
| AUAAAAGCGCCAGAGCUACAGAAAUGUAGUUGACCACGAGGAGGUUUACCGAAUUUUCGGCGGAUGCCUCCAAA [A15G G35C G37C U49C] | < 1e-05 |
| AUAAAAGCGCCAGAGCUACAGAAAUGUAGUUGACGACGAGGAGGUUUAUCGAAUUUGCGGCGGAUGUCUCCAAA [A15G G37C U57G C67U] | < 1e-05 |
| AUAAAAGCGCCAGAGCUACAGAAAUGUAGAUGACUAGGAGGAGGUUUAUCGAAUUUUCUGCGGAUGCCUCCAAA [A15G U30A G35U G59U] | < 1e-05 |
| AUAAAAGCGCCAGAGCUACAGAAAUGUAGUCGACGUGGAGGAGGUUUAUCGAAUGUACGACGGAUGCCUCCAAA [A15G U31C A36U U55G U57A G60A] | < 1e-05 |
| AUAAAAGCGCCAGAUCUACAGAAAUGUAGUUGGCGAGGAGGAGGUUUGUCGAAUUUUCGGCAGAUGCCUCCAAA [A15U A33G A48G G62A] | < 1e-05 |
| AUAAAAGCGCCAGAUCUACAGAAAUGUAGUUGACGGGGUGGAGGUUUAUCGAAUUUUCGGCGGAUGCCUCCAAA [A15U A36G A39U] | < 1e-05 |
| AUAAAAGCGCCAGAUCUACAGAAAUGUAGUUGACGAGGAGGAGGUUUAUCGGAUUUGCGGCCGCUGCCUCCAAA [A15U A52G U57G G62C A64C] | < 1e-05 |
| AUAAAAGCGCCAGAUAUACAGAAAUGUAGUUGACGAGGAGGAGGCUUAUCGAAUUUUCGGCGGAUGCCUACAAA [A15U C16A U45C C70A] | < 1e-05 |
| AUAAAAGCGCCAGAUGUACAGAAAUGUAGAUGGCGAGGAGGAGGUUUAUCGAAUUUUCAGCGGAUGCCUCCAAA [A15U C16G U30A A33G G59A] | < 1e-05 |
| AUAAAAGCGCCAGAUUUACAGAAAUGUAGUUGACGAGGAGGAGGUUUAUCGAAUUUUGGGCGGAUGCCUUCAAA [A15U C16U C58G C70U] | 7.87e-05 ± 2.1e-05 |
| AUAAAAGCGCCAGAUCUACAGAAAUGUAGUUGACUAGGAGGAGGUUUAUCGAAUUUUUGGCGGAUGCCUCCAAA [A15U G35U C58U] | < 1e-05 |
| AUAAAAGCGCCAGAUCUACAGAAAUGUAGUUGACGAAGCGGAGGUUUAUCGAAUUUUCCGCGGAUGCCUCCAAA [A15U G37A A39C G59C] | < 1e-05 |
| AUAAAAGCGCCAGAUCUACAGAAAUGUAGCUGACGAGGAGGAGCUUUAUCCAAUUUUCGGCGGAUGCCUCCAAA [A15U U30C G44C G51C] | < 1e-05 |
| AUAAAAGCGCCAGAUCUACAGAAAUGUAGUUGACGAGGAGGAGGUAUAUCGAAUUCCCGGCGGAUGCCUCCAAA [A15U U46A U56C U57C] | < 1e-05 |
| AUAAAAGCGCCAGAAAUACAGAAAUGUAGUUGACGACGAGGAGGUUUAUCGAAUUUUCGGCCGAUGCCUCCAAA [C16A G37C G62C] | < 1e-05 |

| Variant | self-cleavage kobs at 2500 uM GlcN6P [s⁻¹] |
| --- | --- |
| AUAAAAGCGCCAGAAAUACAGAAAUGUAGUUGACGAGGACGUGGUUUAUCGAAUUUUCGGCGGAUGCCUCCAAA [C16A G40C A42U] | < 1e-05 |
| AUAAAAGCGCCAGAAAUACAGAAAUGUAGUUGACGAGGAGGAAGUUUAUCGAAUUUUCGACGGAUGCCUGCAAA [C16A G43A G60A C70G] | < 1e-05 |
| AUAAAAGCGCCAGAAAUACAGAAAUGUAGUUGACGAGGAGGACGUUUAUCGAAUUUUCGGCGAUUGCCUCCAAA [C16A G43C G63A A64U] | < 1e-05 |
| AUAAAAGCGCCAGAAAUACAGAAAUGUAGUUGACGAGGAGGAUGUUUAUCGAUUUUUCGACGGAUGCAUCCAAA [C16A G43U A53U G60A C68A] | < 1e-05 |
| AUAAAAGCGCCAGAAAUACAGAAAUGUAGUUGACGAGGAGGAGGUGUAUCGAAUUUUCGGGGGAUGCCUCCAAA [C16A U46G C61G] | < 1e-05 |
| AUAAAAGCGCCAGAAGUAAAGAAAUGUAGUUUACGAGGAGGUGGUUUAUCGAAUUUUCGACGGAUGCAUCCAAA [C16G C19A G32U A42U G60A C68A] | < 1e-05 |
| AUAAAAGCGCCAGAAGUACAGAAAUGUACUUGACGAGGAGGAGGUUUAUCGAUUUUUCGGCGGAUGCCUCCAAA [C16G G29C A53U] | 0.00684 ± 0.0022 |
| AUAAAAGCGCCAGAAGUACAGAAAUGUACUGGACGAGGAGGAGGUUUAUCGAAUUUUCGGCGGAUGCCUCCAAA [C16G G29C U31G] | 0.00447 ± 0.00064 |
| AUAAAAGCGCCAGAAGUACAGAAAUGUAGUUGACGACGAGGAGGUUUAUCGAGUUUUCGGCCGAUGCCCCCAAA [C16G G37C A53G G62C U69C] | < 1e-05 |
| AUAAAAGCGCCAGAAGUACAGAAAUGUAGUUGACGAGCAGGAGGUUUAUCGAAUUUUUGGCGGGUGCCUGCAAA [C16G G38C C58U A64G C70G] | < 1e-05 |
| AUAAAAGCGCCAGAAUUACAGAAAUGUAGUUGACGGGGUGGAGGUUUAUCGAAUUUUCGGCAGAUGGCUCCAAA [C16U A36G A39U G62A C67G] | < 1e-05 |
| AUAAAAGCGCCAGAAUUACAGAAAUGUAAUUGACGAGGAGUAGGUUUAUCGAAUUUUCGGCAGAUGCCUCCAAA [C16U G29A G41U G62A] | < 1e-05 |
| AUAAAAGCGCCAGAAUUACAGAAAUGUAGUUGACCAGGAGGAGGUUUAUCGAAUUUUCGGCGUAUGCCUCCAAA [C16U G35C G63U] | < 1e-05 |
| AUAAAAGCGCCAGAAUUACAGAAAUGUAGUUGACGAGGAGAAGGUUUAUCGAAUUUUCGGCUGAUGCCUCCAAA [C16U G41A G62U] | < 1e-05 |
| AUAAAAGCGCCAGAAUUACAGAAAUGUAGUUGACGAGGAGGAGGUUUAUCCAAUUUUAGGCGGAUGCCUCCAAA [C16U G51C C58A] | < 1e-05 |
| AUAAAAGCGCCAGAAUUACAGAAAUGUAGUCGACGAGGAGGAGGUCUAUCGAAUUUUCGGCGGAUGCCUUCAAA [C16U U31C U46C C70U] | 0.000342 ± 0.00015 |
| AUAAAAGCGCCAGAAUUACAGAAAUGUAGUUGACGAGGAGGAGGAUUAUCGAAUUUUCGGCCGAUGCCUCCAAA [C16U U45A G62C] | < 1e-05 |

Variants of: B1
Assay: self-cleavage kobs at 10000 uM GlcN6P; higher = faster cleavage; RNA array
Conditions: with glucosamine-6-phosphate
Outline: as §1

| Variant | self-cleavage kobs at 10000 uM GlcN6P [s⁻¹] |
| --- | --- |
| AUAAAAGCGCCAGAUCUACAGAAAUGUAGUUGACGGGGUGGAGGUUUAUCGAAUUUUCGGCGGAUGCCUCCAAA [A15U A36G A39U] | < 1e-05 |
| AUAAAAGCGCCAGAUCUACAGAAAUGUAGUUGACGAGGAGGAGGUAUAUCGAAUUCCCGGCGGAUGCCUCCAAA [A15U U46A U56C U57C] | < 1e-05 |
| AUAAAAGCGCCAGAAGUACAGAAAUGUAGUUGACGACGAGGAGGUUUAUCGAGUUUUCGGCCGAUGCCCCCAAA [C16G G37C A53G G62C U69C] | < 1e-05 |
